According to the CheMixHub ionic liquid set:
± gives the uncertainty stated by the source. The source gives many values for each of these; only a part stands here.

Assay: xn = mol fraction of the nth substance listed
Conditions: 101 kPa

SMILES: CCCCCCCCCCCCOCC(O)C[N+](C)(C)C.[Cl-] (centres undefined) + O
- electrical conductivity (318.15 K, x1 = 0.0001069): 150 ± 6 S/m
- electrical conductivity (318.15 K, x1 = 0.0001166): 162 ± 6.5 S/m
- electrical conductivity (318.15 K, x1 = 0.0001263): 173 ± 6.9 S/m
- electrical conductivity (318.15 K, x1 = 0.0001362): 183 ± 7.4 S/m
- electrical conductivity (318.15 K, x1 = 0.000146): 193 ± 7.8 S/m
- electrical conductivity (323.15 K, x1 = 9.77e-06): 15.7 ± 0.63 S/m
- electrical conductivity (323.15 K, x1 = 1.929e-05): 31.1 ± 1.2 S/m
- electrical conductivity (323.15 K, x1 = 2.918e-05): 46.2 ± 1.9 S/m
- electrical conductivity (323.15 K, x1 = 3.872e-05): 61 ± 2.4 S/m
- electrical conductivity (323.15 K, x1 = 4.847e-05): 75.3 ± 3 S/m
- electrical conductivity (323.15 K, x1 = 5.831e-05): 89.2 ± 3.6 S/m
- electrical conductivity (323.15 K, x1 = 6.791e-05): 104 ± 4.2 S/m
- electrical conductivity (323.15 K, x1 = 7.769e-05): 119 ± 4.8 S/m
- electrical conductivity (323.15 K, x1 = 8.751e-05): 132 ± 5.3 S/m
- electrical conductivity (323.15 K, x1 = 9.708e-05): 146 ± 5.8 S/m
- electrical conductivity (323.15 K, x1 = 0.0001069): 160 ± 6.4 S/m
- electrical conductivity (323.15 K, x1 = 0.0001166): 171 ± 6.9 S/m
- electrical conductivity (323.15 K, x1 = 0.0001263): 182 ± 7.3 S/m
- electrical conductivity (323.15 K, x1 = 0.0001362): 196 ± 7.9 S/m
